# Assay results published in PMC9911399, “Two distinct binding modes provide the RNA-binding protein RbFox with extraordinary sequence specificity”.
# Residue numbers refer to the chain shown, from its start. Some of the results follow.
# T1: RBFOX1 RRM (Homo sapiens, UniProt Q9NWB1 109-208)
# T1 sequence: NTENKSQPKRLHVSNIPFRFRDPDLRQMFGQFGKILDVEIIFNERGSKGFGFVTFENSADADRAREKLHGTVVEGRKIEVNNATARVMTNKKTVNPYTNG
# B1: AUCUGCC (DNA:RNA)
# RNA: GGGAGACCGGAAUUCAGAUUGUCCAUCUGCCUUAAAUCCCGUCGUAGCCACCA
# DNA 1: CAATCTGAATTCCGGTCTCCC
# DNA 2: TGGTGGCTACGACGGGATT
# B2: GGCACUG (DNA:RNA)
# RNA: B1 RNA with A25G, U26G, U28A, G29C, C30U, C31G
# DNA 1: CAATCTGAATTCCGGTCTCCC
# DNA 2: TGGTGGCTACGACGGGATT
# B3: AGAUACG (DNA:RNA)
# RNA: B1 RNA with U26G, C27A, G29A, C31G
# DNA 1: CAATCTGAATTCCGGTCTCCC
# DNA 2: TGGTGGCTACGACGGGATT
# B4: ACAUUUG (DNA:RNA)
# RNA: B1 RNA with U26C, C27A, G29U, C30U, C31G
# DNA 1: CAATCTGAATTCCGGTCTCCC
# DNA 2: TGGTGGCTACGACGGGATT
# B5: GCUGCAG (DNA:RNA)
# RNA: GGGAGACCGGAAUUCAGAUUGUCCGCUGCAGUUAAAUCCCGUCGUAGCCACCA
# DNA 1: CAATCTGAATTCCGGTCTCCC
# DNA 2: TGGTGGCTACGACGGGATT
# B6: GUUCUUU (DNA:RNA)
# RNA: B5 RNA with C26U, G28C, C29U, A30U, G31U
# DNA 1: CAATCTGAATTCCGGTCTCCC
# DNA 2: TGGTGGCTACGACGGGATT
# B7: CUCGAAG (DNA:RNA)
# RNA: B5 RNA with G25C, C26U, U27C, C29A
# DNA 1: CAATCTGAATTCCGGTCTCCC
# DNA 2: TGGTGGCTACGACGGGATT
# B8: UCGCUCU (DNA:RNA)
# RNA: B1 RNA with A25U, U26C, C27G, U28C, G29U, C31U
# DNA 1: CAATCTGAATTCCGGTCTCCC
# DNA 2: TGGTGGCTACGACGGGATT
# B9: CAUCUAG (DNA:RNA)
# RNA: B5 RNA with G25C, C26A, G28C, C29U
# DNA 1: CAATCTGAATTCCGGTCTCCC
# DNA 2: TGGTGGCTACGACGGGATT
# B10: CUUCGAC (DNA:RNA)
# RNA: B1 RNA with A25C, C27U, U28C, C30A
# DNA 1: CAATCTGAATTCCGGTCTCCC
# DNA 2: TGGTGGCTACGACGGGATT
# B11: UCGCCAU (DNA:RNA)
# RNA: B5 RNA with G25U, U27G, G28C, G31U
# DNA 1: CAATCTGAATTCCGGTCTCCC
# DNA 2: TGGTGGCTACGACGGGATT
# B12: UUAACCU (DNA:RNA)
# RNA: B1 RNA with A25U, C27A, U28A, G29C, C31U
# DNA 1: CAATCTGAATTCCGGTCTCCC
# DNA 2: TGGTGGCTACGACGGGATT
# B13: ACUGGAC (DNA:RNA)
# RNA: B5 RNA with G25A, C29G, G31C
# DNA 1: CAATCTGAATTCCGGTCTCCC
# DNA 2: TGGTGGCTACGACGGGATT
# B14: GAAGAGU (DNA:RNA)
# RNA: B5 RNA with C26A, U27A, C29A, A30G, G31U
# DNA 1: CAATCTGAATTCCGGTCTCCC
# DNA 2: TGGTGGCTACGACGGGATT
# B15: AAAGCUC (DNA:RNA)
# RNA: B1 RNA with U26A, C27A, U28G, G29C, C30U
# DNA 1: CAATCTGAATTCCGGTCTCCC
# DNA 2: TGGTGGCTACGACGGGATT
# B16: AUAACUG (DNA:RNA)
# RNA: B1 RNA with C27A, U28A, G29C, C30U, C31G
# DNA 1: CAATCTGAATTCCGGTCTCCC
# DNA 2: TGGTGGCTACGACGGGATT
# B17: CUAGCUA (DNA:RNA)
# RNA: B5 RNA with G25C, C26U, U27A, A30U, G31A
# DNA 1: CAATCTGAATTCCGGTCTCCC
# DNA 2: TGGTGGCTACGACGGGATT
# B18: UGCAGAG (DNA:RNA)
# RNA: B1 RNA with A25U, U26G, U28A, C30A, C31G
# DNA 1: CAATCTGAATTCCGGTCTCCC
# DNA 2: TGGTGGCTACGACGGGATT
# B19: GUUUGGA (DNA:RNA)
# RNA: B1 RNA with A25G, C27U, C30G, C31A
# DNA 1: CAATCTGAATTCCGGTCTCCC
# DNA 2: TGGTGGCTACGACGGGATT
# B20: ACGCGAU (DNA:RNA)
# RNA: B1 RNA with U26C, C27G, U28C, C30A, C31U
# DNA 1: CAATCTGAATTCCGGTCTCCC
# DNA 2: TGGTGGCTACGACGGGATT
# Biological target: T1, RBFOX1 RRM
# Assay: EMSA; HiTS-Eq, 1 nM pool, 10 min; buffer printed only for the single-RNA assays: 10 mM Tris pH 7.5, 150 mM NaCl, 3.4 mM EDTA, 0.001% NP-40, 30 C
# Settings: tags: His6 N-terminal (pET28a); label: 5' 32P
# In short: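 Relative association constants, normalised to the cognate motif, were derived by comparing read counts of each RNA species with those of the control reaction. The RNA sequenced was the free fraction, separated by 8% native PAGE after a 10 min equilibration in 50 µL of 1 nM 5′-radiolabelled RNA (7 randomized nucleotides) with increasing concentrations of purified wild-type or mutant RbFox RRM.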
row,Binder,binding signal
1,B1,0.012 KA relative to UGCAUGU
2,B2,0.0143 KA relative to UGCAUGU
3,B3,0.00918 KA relative to UGCAUGU
4,B4,0.00773 KA relative to UGCAUGU
5,B5,0.0212 KA relative to UGCAUGU
6,B6,0.0158 KA relative to UGCAUGU
7,B7,0.00771 KA relative to UGCAUGU
8,B8,0.0119 KA relative to UGCAUGU
9,B9,0.00464 KA relative to UGCAUGU
10,B10,0.0101 KA relative to UGCAUGU
11,B11,0.00472 KA relative to UGCAUGU
12,B12,0.00125 KA relative to UGCAUGU
13,B13,0.0153 KA relative to UGCAUGU
14,B14,0.0143 KA relative to UGCAUGU
15,B15,0.00427 KA relative to UGCAUGU
16,B16,0.00865 KA relative to UGCAUGU
17,B17,0.00791 KA relative to UGCAUGU
18,B18,0.0239 KA relative to UGCAUGU
19,B19,0.00795 KA relative to UGCAUGU
20,B20,0.00671 KA relative to UGCAUGU
